Assay results taken from PubChem BioAssay AID651820 (National Center for Advancing Translational Sciences (NCATS), 2012).
About 12,000 (3.5%) of roughly 340,000 compounds were called active. Inconclusive means that the source gave no clear call. Such entries were picked first, then a sample of the others. The call rests on the fitted dose curve; in most records, active means well fitted inhibition curve with a large enough effect; inconclusive means small, poorly fitted or top-dose-only effect, or another doubt; inactive means no such curve, though single readings can be large or run the other way. No potency is given beside an inconclusive call; the fits are too rough.

experiment: qHTS Assay for Inhibitors of Hepatitis C Virus (HCV); details: Huh7.5.1 HCVcc-Cre (HCVcc is cell-culture hepatitis C virus) infection, luciferase reporter, 44 h; activity change, negative = inhibition: at 41.8 µM (top of the series)
Summary of the method: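 Seed cells (1,000/well) for 4 h; treat with compound and infect with HCVcc-Cre, moi about 0.5. Incubate 44 h, then detect luciferase activity.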
On the % scale 0 is the no-effect control and ±100 the full control effect; potency means the concentration at half of the fitted maximal effect; tags describe the fitted curve by direction and shape.

Row | SMILES | activity change, negative = inhibition | Potency
1 | COc1ccc(Cl)cc1C(=O)NNC(=O)CNC(=O)c1ccc(C)s1 | inactive: 2.02% | –
2 | COc1ccc(NC(=O)COc2ccc(N(C)S(=O)(=O)c3ccc(C)cc3)cc2)cc1 | – | inconclusive [inhibitor, single point]
3 | Cc1ccc(CNC(=O)[C@H](Cc2ccccc2)NC(=O)c2ccco2)cc1 | – | inconclusive [inhibitor, single point]
4 | CCOc1ccccc1OCCCOc1ccc([N+](=O)[O-])cc1Cl | – | active: 12.6 µM
5 | Cc1ccc(S(=O)(=O)Nc2ccc3c(c2)c2c(n3S(=O)(=O)c3ccc(C)cc3)CCCC2=O)cc1 | – | inconclusive [inhibitor, partial curve, poor fit]
6 | Cc1ccc(NC(=S)NC(C)CCc2ccccc2)cc1C (stereo not given) | – | inconclusive [inhibitor, single point]
7 | CCN(CC)CCSc1nnc2c3ccccc3n(CCc3ccccc3)c2n1 | – | active: 10 µM
8 | CN1CCC(Oc2ccccc2Sc2ccccc2)CC1 | – | inconclusive [inhibitor, single point]
9 | Cc1ccc(S(=O)(=O)Oc2ccc(/C=C3/N=C(c4ccccc4)OC3=O)cc2)cc1 | – | inconclusive [inhibitor, single point]
10 | COc1cc(NC(=O)Cc2ccc(OC)c(S(=O)(=O)N3CCOCC3)c2)c(OC)cc1Cl | – | inconclusive [inhibitor, single point]
11 | CCN(CC)S(=O)(=O)c1cccc(C(=O)OCC(=O)NC(C)c2ccccc2)c1 (stereo not given) | inactive: 2.3% | –
12 | Clc1ccc(OCc2nc(-c3ccncc3)no2)cc1 | – | inconclusive [inhibitor, partial curve]
13 | COc1cccc(N2[C@@H](CC(=O)O)c3cc(C(F)(F)F)ccc3S2(=O)=O)c1 | inactive: 8.2% [at 8.37 µM] | –
14 | Clc1cccc2sc(N3CCN(c4ccccc4)CC3)nc12 | inactive: -1.27% | –
15 | O=C(c1cc(Br)c(Br)s1)N1CCc2ccccc2C1 | inactive: -5.91% | –
16 | O=C(c1ccc2c(c1)N(Cc1ccccc1)CCS2)N1CCC2(CC1)OCCO2 | – | inconclusive [inhibitor, single point]
17 | COc1nc(-c2cnccn2)sc1C | inactive: 8.53% | –
18 | COc1ccc(CCC(=O)Nc2nc(C)c(C(=O)N(C)C)s2)cc1 | inactive: 14.2% | –
19 | CCN(Cc1ccc(Cl)s1)C(=O)c1cccc(OCc2c(C)noc2C)c1 | – | inconclusive [inhibitor, single point]
20 | COc1ccc(-c2noc(CCC(=O)N3CCN(c4cccc(C(F)(F)F)c4)CC3)n2)cc1 | – | inconclusive [inhibitor, single point]
21 | COc1cccc(OC)c1OCc1cc(C2C3CCCC=C3C(C#N)=C(N)C2(C#N)C#N)c(C)cc1C (stereo not given) | inactive: -13.2% | –
22 | CCOC(=O)C1(c2ccccc2)CCN(CC(=O)c2ccc(NC(C)=O)cc2)CC1 | – | inconclusive [inhibitor, single point]

Row | SMILES | activity change, negative = inhibition | Potency
23 | CCn1c(SC)nnc1-c1sc2cc(Cl)ccc2c1Cl | – | active: 5.62 µM
24 | O=C(Nc1ccccc1Cl)C1C(c2ccccc2)C1(Cl)Cl (stereo not given) | inactive: -7.74% | –
25 | COc1ccc(C(=O)c2c[nH]c(C(=O)NCC3CCCO3)c2)cc1 (stereo not given) | inactive: 7.94% | –
26 | CCOc1ccccc1NC(=O)C(OC(=O)c1ccc(N(C)C)cc1)c1ccccc1 (stereo not given) | – | active: 11.2 µM
27 | CCCCn1c(N)c(N(CCC(C)C)C(=O)C2CC(=O)N(c3cccc(SC)c3)C2)c(=O)[nH]c1=O (stereo not given) | – | inconclusive [inhibitor, single point]
28 | Cc1ccc(C(=O)N2N=C(c3ccc(NS(C)(=O)=O)cc3)CC2c2cccs2)cc1 (stereo not given) | – | inconclusive [inhibitor, single point]
29 | CCOC(=O)C(Cc1cc(C(C)=O)ccc1OCC)C(=O)OCC | – | inconclusive [inhibitor, single point]
30 | COc1ccc(CNS(=O)(=O)c2cc(-c3cc(C)no3)ccc2C(C)C)cc1 | – | inconclusive [inhibitor, single point]
31 | CCN(CC)CCNC(=O)CNC(=S)N(CCCN1CCOCC1)Cc1cccs1 | – | inconclusive [inhibitor, single point]
32 | CCS(=O)c1ccccc1C(=O)OCC(=O)Nc1cccc(S(=O)(=O)N2CCCCC2)c1 (stereo not given) | – | active: 10 µM
33 | O=C(Cn1cc(C(F)(F)F)ccc1=O)OCC(=O)c1ccc[nH]1 | inactive: 26.8% | –
34 | O=[N+]([O-])c1ccc(-c2ccc(/C=N/Nc3nc(N4CCCC4)nc(N4CCCC4)n3)o2)cc1 | – | inconclusive [inhibitor, partial curve]
35 | CC[C@H]1OC(=O)[C@H](C)[C@@H](O[C@H]2C[C@@](C)(OC)[C@@H](O)[C@H](C)O2)[C@H](C)[C@@H](O[C@@H]2O[C@H](C)C[C@H](N(C)C)[C@H]2O)[C@](C)(O)C[C@@H](C)CN(C)[C@H](C)[C@@H](O)[C@]1(C)O | – | inconclusive [inhibitor, full curve]
36 | Cc1ccc(OCC(=O)c2cc(C)n(CC(F)(F)F)c2C)c([N+](=O)[O-])n1 | – | inconclusive [inhibitor, partial curve]
37 | Cc1ccc(C(=O)C(C)Sc2nnc(N)s2)cc1 (stereo not given) | inactive: 7.45% | –
38 | O=C(NNS(=O)(=O)c1ccccc1)c1cc2cc3ccccc3nc2s1 | inactive: 13.8% | –
39 | Cc1ccc2occ(/C=N/NC(=O)c3ccccc3O)c(=O)c2c1 | – | inconclusive [inhibitor, single point]
40 | COc1ccc(NC(=S)/N=C(\N)Nc2nc(C)c3ccccc3n2)cc1 | – | inconclusive [inhibitor, single point]
41 | C=CCC[C@@H](Cc1ccc(F)cc1)C(=O)OC[C@@H](Cc1c[nH]c2ccccc12)NC(=O)[C@@H](CC=C)CC(=O)N(CCO)Cc1ccccc1 | – | inconclusive [inhibitor, single point]
42 | N#Cc1c(N)n(C2OC(CO)C(O)C2O)c2ncnc(N)c12 (stereo not given) | – | inconclusive [inhibitor, partial curve, poor fit]
43 | C[C@@H](NC(=O)c1[nH]cnc1C(=O)Nc1ccc(Cl)cc1)c1ccccc1 | – | inconclusive [inhibitor, single point]
44 | O=c1c2cc(N3CCOCC3)ccc2[nH]c(=S)n1CCCN1CCCCCC1 | – | inconclusive [inhibitor, single point]

Row | SMILES | activity change, negative = inhibition | Potency
45 | COc1ccc(-c2cc(C(=O)NCC(c3ccco3)N(C)C)c3ccccc3n2)cc1OC (stereo not given) | – | inconclusive [inhibitor, single point]
46 | O=C(CCC1CCCCC1)NCCN1C2=NC[C@H](Cc3ccccc3)N2C[C@H]1Cc1ccc(O)cc1 | inactive: 42% [at 8.37 µM] | –
47 | Cc1oc(-c2ccccc2F)nc1CN1CCC(C(=O)NC2CCCc3ccccc32)CC1 (stereo not given) | – | inconclusive [inhibitor, single point]
48 | CCOC(=O)c1ccccc1NC(=O)c1ccc2nccnc2c1 | – | inconclusive [inhibitor, single point]
49 | Cc1cc(NC(=O)c2cc3ccccc3o2)cc(C)c1OCC(=O)N1CCOCC1 | – | inconclusive [inhibitor, partial curve]
50 | COC(=O)CCC(=O)OC1(C)C(=O)C=C2C=C(C3CC3)N(c3ccccc3)C=C2C1=O (stereo not given) | inactive: 10% [at 8.37 µM] | –
51 | COc1ccc(CC(=O)Nc2ccc(OC)c(NC(=O)c3ccco3)c2)cc1 | – | inconclusive [inhibitor, partial curve]
52 | COc1ccc(NS(=O)(=O)c2cc(NC(=O)/C=C/c3cccs3)ccc2N2CCOCC2)cc1 | – | inconclusive [inhibitor, partial curve]
53 | CC(=O)C1=C(c2ccccc2)NC(=O)NC1c1ccccc1 (stereo not given) | inactive: 14.2% | –
54 | COc1ccc(N(C)S(=O)(=O)c2ccc(C)cc2)c([N+](=O)[O-])c1 | inactive: -6.51% | –
55 | Cc1cc(C(=O)NN=Cc2ccc(-c3ccc(F)cc3)o2)c(C)o1 | – | inconclusive [inhibitor, partial curve]
56 | COc1ccc(N(CC(=O)NC2CCCCC2C)S(=O)(=O)c2c(C)nn(C)c2C)cc1 (stereo not given) | inactive: -2.19% | –
57 | O=C(c1ccc(Cl)c([N+](=O)[O-])c1)N1CCN(Cc2ccc3c(c2)OCO3)CC1 | – | inconclusive [inhibitor, single point]
58 | Cc1cccc(-c2nc(CS(=O)CC(=O)NCCCSC3CCCCC3)c(C)o2)c1 (stereo not given) | – | inconclusive [inhibitor, partial curve]
59 | CCOc1ccc(Br)cc1C(=O)N/N=C/c1ccc([N+](=O)[O-])cc1 | – | inconclusive [inhibitor, partial curve, poor fit]
60 | CCN(CC)S(=O)(=O)c1cc(NC(=O)c2cccc(N3C(=O)CCC3=O)c2)ccc1Cl | – | inconclusive [inhibitor, single point]
61 | CCCCC(=O)Nc1ccccc1C(=O)OCC(=O)c1ccc2c(c1)OCCO2 | – | inconclusive [inhibitor, partial curve]
62 | COc1ccc(OC)c(-c2cc(C(=O)N3CCOCC3)no2)c1 | – | inconclusive [inhibitor, single point]
63 | CCS(=O)c1scc(-c2ccc(Cl)cc2)c1C#N (stereo not given) | inactive: -16.8% | –
64 | COc1ccccc1/C(C)=N/NC(=O)c1nnn(-c2nonc2N)c1C(C)C | – | inconclusive [inhibitor, single point]
65 | O=C(NCc1nnc(SCc2ccccc2)n1-c1ccc(F)cc1)C12CC3CC(CC(C3)C1)C2 | – | inconclusive [inhibitor, partial curve]
